Molecules are shown by their SMILES. Out of some 110,000 compounds screened, about 230 (0.21%) showed an effect of 50% or more. Some of the results follow.
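Note: 30 min substrate incubation versus DMSO and 10 µM JCP410 controls.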

Chain of DPAP1 (Q8IIJ9 whole entry, looked up): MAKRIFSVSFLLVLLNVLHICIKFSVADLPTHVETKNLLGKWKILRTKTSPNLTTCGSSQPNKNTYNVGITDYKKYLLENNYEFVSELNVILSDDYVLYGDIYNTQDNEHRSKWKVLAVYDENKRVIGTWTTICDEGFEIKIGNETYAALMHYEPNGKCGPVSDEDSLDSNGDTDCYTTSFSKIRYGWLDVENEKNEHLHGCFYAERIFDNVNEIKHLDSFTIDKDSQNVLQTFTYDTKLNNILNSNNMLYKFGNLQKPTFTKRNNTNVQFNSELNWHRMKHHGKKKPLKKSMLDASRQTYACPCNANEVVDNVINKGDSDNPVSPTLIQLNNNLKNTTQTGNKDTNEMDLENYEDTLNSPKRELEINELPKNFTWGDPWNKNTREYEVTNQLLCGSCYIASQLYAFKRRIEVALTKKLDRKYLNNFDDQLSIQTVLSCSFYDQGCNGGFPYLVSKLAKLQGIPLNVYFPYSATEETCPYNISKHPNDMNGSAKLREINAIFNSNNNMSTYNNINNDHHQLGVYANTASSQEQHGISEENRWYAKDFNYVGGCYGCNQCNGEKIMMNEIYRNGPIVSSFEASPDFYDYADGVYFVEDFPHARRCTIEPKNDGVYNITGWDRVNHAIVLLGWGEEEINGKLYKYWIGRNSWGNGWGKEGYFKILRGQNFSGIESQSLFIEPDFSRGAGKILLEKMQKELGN

The test concerns the target DPAP1 (Plasmodium falciparum, UniProt Q8IIJ9). In words: primary screen, percent inhibition; read by cleavage of a fluorogenic dipeptide substrate; higher = more effect of the substance. Details: species or system P. falciparum D10 trophozoite lysates; single well.
Regarding `Cn1ncc(Cl)c(Oc2ccc(Cl)cc2)c1=O`, the “% Inhibition @ 10 uM” value amounted to 0.526%.
As to `CCN1CCCC(NC(=O)c2cc(NC)ccc2OC)C1` (stereo not drawn), the “% Inhibition @ 10 uM” value is on record as -4.12%.
Regarding `Cc1cc(C)n2nc(CNC(=O)c3cccc(F)c3)nc2n1`, the “% Inhibition @ 10 uM” value is on record as 2.84%.
For `Cn1c(=O)c2c(nc(CN(Cc3ccccc3)Cc3ccccc3)n2Cc2ccccc2)n(C)c1=O` the value was -2.29%; for `COC(=O)c1sc(N2C(=O)C(O)=C(C(=O)c3ccc(OC)c(C)c3)C2c2ccc(O)cc2)nc1C` (stereo not drawn), 4.85%.
The same measure for `CCCC(=O)Nc1ccc(Cl)c(NC(=O)c2cccnc2Cl)c1`: 16.8%; for `C=CCOc1c(CNc2nccs2)cccc1OCC`: 2.02%.
The same measure for `O=C(Nc1ccc(F)cc1F)c1ccc(Cl)cc1`: -2.36%; for `CCN(CCN(C)C)Cc1ccc(F)cc1`: 2.7%; for `CC(NC(=O)c1ccccc1)c1nc2ccccc2n1C(C)C` (stereo not drawn): 12.1%.
With `COc1ccc(CC(=O)Nc2cc(OC)c(OC)cc2C(=O)O)cc1`, the “% Inhibition @ 10 uM” value was -3.34%.
For `O=C1NC(=O)N(c2ccc(Br)cc2)C(=O)/C1=C\NCCc1c[nH]c2ccccc12`, the “% Inhibition @ 10 uM” value is on record as 2.45%.
For the molecule `COc1ccc(C2C(C(=O)N3CCN(C)CC3)c3ccccc3C(=O)N2Cc2ccc(F)cc2)cc1` (stereo not drawn), the “% Inhibition @ 10 uM” value was 7.99%.
For `Cc1cccc(C(=O)O/N=C(\N)c2ccccn2)c1`, the “% Inhibition @ 10 uM” value amounted to 4.06%.
`CCOC(=O)C1CCCN(CCc2ccccc2)C1` (stereo not drawn): the “% Inhibition @ 10 uM” value was -0.817%.
`C=CCOc1ccc(/C=C2\SC(N)=NC2=O)cc1OC`: the “% Inhibition @ 10 uM” value is reported as 0.997%.
As to `Cc1cccc(N2CC(C(=O)Nc3ccc(Cl)c(Cl)c3)CC2=O)c1C` (stereo not drawn), the “% Inhibition @ 10 uM” value is on record as -0.992%.
For `CN(c1ccccc1)S(=O)(=O)c1cc(Cl)ccc1Cl` the value was 5.43%.
The same measure for `O=C(CN1C(=O)S/C(=C/c2ccc(F)cc2)C1=O)Nc1nccs1`: -4.43%; for `CCOc1ccccc1NC(=O)c1c(Br)cnn1C`: -2.74%.
As for `CC(C)Oc1ccc(CC/N=C(\N)N=C(N)N)cc1Cl`, the “% Inhibition @ 10 uM” value was -2.87%.
For `COc1ccc(N(CC(=O)N2CCCCC2)S(=O)(=O)c2ccc(C)cc2)cc1Cl`, the “% Inhibition @ 10 uM” value is listed as -2.74%.
For `Cc1c(C(=O)OC2CCC(C)CC2)[nH]c2c1C(=O)CCC2` (stereo not drawn) the value was -0.0508%; for `O=C(O)C1CCCCC1C(=O)NCCC(c1ccccc1)c1ccccc1` (stereo not drawn), 0.389%.
As to `Cc1ccc(/C=C(\NC(=O)c2ccc(Cl)cc2)C(=O)N2CC3CC(C2)c2cccc(=O)n2C3)o1` (stereo not drawn), the “% Inhibition @ 10 uM” value turned out to be 1.76%.
For the molecule `CCOc1ccc(-c2cnnn2-c2nonc2N)cc1OC`, the “% Inhibition @ 10 uM” value amounted to 3.47%.
For the molecule `Cc1cccc(-c2cc(C(=O)N3CCN(C)CC3)c3ccccc3n2)c1`, the “% Inhibition @ 10 uM” value turned out to be 1.64%.
Consider `Cc1cc(C)nc(NC2=NC(=O)CC(C(=O)O)N2CCc2c[nH]c3ccccc23)n1` (stereo not drawn), for which the “% Inhibition @ 10 uM” value worked out at 2.46%.
For `CCOc1ccccc1/C=C1/N=C(c2cccc3ccccc23)OC1=O` the value was -0.597%.
For `Cc1nc2c(c(C)nn2-c2ccccc2)c(C)c1CCC(=O)NCc1ccc2c(c1)OCO2` the value was 0.953%; for `COCCNC(=O)/C(C#N)=C/c1c(Oc2ccccc2)nc2c(C)cccn2c1=O`, -3.23%; for `CCOc1ccc(-c2[nH]nc3c2C(c2ccccc2F)C(C#N)=C(N)O3)cc1OC` (stereo not drawn), -6.59%.
For `CCOC(=O)c1cnc2cc(C)nn2c1C` the value was -3.74%; for `C/C=C/C(=O)Nc1cc(OC)c(Cl)cc1OC`, 1.41%.
Consider `Cc1cccc(NC(=O)c2ccccc2Br)c1`, for which the “% Inhibition @ 10 uM” value is 1.55%.
`COc1ccccc1C(=O)Nc1cccc(Cl)c1`: the “% Inhibition @ 10 uM” value is -2.21%.
For `O=C(Cc1ccccc1)Nc1c2c(nc3c1CCC3)CCCC2` the value was -2.65%; for `O=C(NCc1ccccc1)c1ccccc1NC(=O)C1CCCCC1C(=O)O` (stereo not drawn), 2.84%.
For `COc1ccccc1N/C=C1/C(=O)NC(=O)N(c2cccc(C)c2)C1=O` the value was -6.7%; for `Cc1cc(C)nc(NC(=O)c2ccc(Cl)cc2)c1`, -5.6%; for `O=C(/C=C/c1ccco1)N(Cc1ccccc1)c1ccccn1`, -3.12%.
Turning to `CCOC(=O)N1CCN(C(=O)CC(c2ccccc2)c2ccccc2)CC1`, the “% Inhibition @ 10 uM” value is -1.84%.
With `N#CC1=C(SCc2ccccc2)NC(=O)CC1c1ccc(O)cc1` (stereo not drawn), the “% Inhibition @ 10 uM” value is recorded as -2.35%.
As to `CCOc1ccc(C(=O)N2CCN(c3cccc(Cl)c3)CC2)cc1`, the “% Inhibition @ 10 uM” value is reported as -4.59%.
For `CCc1ccccc1-n1nnc(-c2nc(-c3ccncc3)no2)c1N` the value was 3.73%.
In the case of `CC1(C)Cc2nc3sc4c(NCc5ccco5)ncnc4c3cc2CO1`, the “% Inhibition @ 10 uM” value is -2.8%.
For `CCC(C)NC(=O)C1CC(c2cc(OC)c(OC)c(OC)c2)=NO1` (stereo not drawn) the value was -9.69%; for `COC(=O)c1ccc(N2Cc3cccc(OC)c3Oc3ncccc32)s1`, 1.63%.
Take `O=C(NC(c1ccccc1)c1ccccc1)c1ccncc1`: the “% Inhibition @ 10 uM” value was -0.233%.
For `CCSc1nnc(NC(=O)c2cc(S(=O)(=O)N3CCOCC3)cn2C)s1` the value was -7.66%; for `COc1ccc(CCNC(=O)CCCc2nnc3n4nc(C)nc4c4ccccc4n23)cc1OC`, -2.92%; for `Clc1ccc(-n2cccc2)cc1`, -5.76%.
For `COC(=O)c1cnn2c(C)c(Cc3ccccc3Cl)c(C)nc12` the value was -0.812%; for `N#C/C(=C/Nc1ccccc1)c1nc(-c2ccc(Cl)cc2)cs1`, -6.01%; for `COc1cccc(C(=O)NC2(C(F)(F)F)C(=O)N(CC(C)C)C3=C2C(=O)CC(C)(C)C3)c1` (stereo not drawn), -2.74%.
Take `CCOC(=O)c1c(NC(=O)c2cc(-c3ccco3)on2)sc(C(C)=O)c1C`: the “% Inhibition @ 10 uM” value was -1.21%.
The same measure for `CCOC(=O)C1=CN(C)C=C(C(=O)OCC)C1c1ccc(F)cc1`: 6.48%; for `Clc1ccc(Nc2nc(Nc3ccc(Cl)cc3)nc(N3CCOCC3)n2)cc1`: 0.526%.
Consider `O=C(CSc1nnc(CNC(=O)c2c(F)cccc2Cl)o1)c1ccccc1`, for which the “% Inhibition @ 10 uM” value is listed as -1.58%.
For `O=C(C1=C(O)C(=O)N(CCN2CCOCC2)C1c1cccc(O)c1)c1cc2ccccc2o1` (stereo not drawn) the value was -0.28%; for `Cc1ccc(S(=O)(=O)Nc2ccc3nc(-c4cccc(F)c4)oc3c2)cc1`, 4.12%; for `CCCCNC(=O)c1ccc2c(SCC(=O)O)c3c(nc2c1)CCCC3`, -2.45%.
For `N#CC1=C(N)Oc2c(ccc3ccccc23)C1c1ccc(C(F)(F)F)cc1` (stereo not drawn) the value was 2.91%; for `CCOc1ccc(/C=C/c2nc(C#N)c(N3CCN(C)CC3)o2)cc1`, 3.27%; for `CCC(Sc1nc2ccncc2[nH]1)C(=O)N(CC)CC` (stereo not drawn), -0.85%.
Regarding `C#CCSc1nc2c(cc1C#N)CCCC2`, the “% Inhibition @ 10 uM” value is 1%.
For `CC1CN(Cc2c(O)ccc3ccccc23)CC(C)O1` (stereo not drawn) the value was -7.91%; for `O=C1C2C3C=CC(CC3)C2C(=O)N1Cc1ccccc1` (stereo not drawn), 7.1%.
The same measure for `O=C(c1ccc(N2C(=O)C3CC=CCC3C2=O)cc1)N1CCCCC1` (stereo not drawn): 0.323%; for `Cc1ccc(C2=NCCNC2=O)c(C)c1`: -9.56%.
Turning to `O=C(/C=C/c1ccco1)Nc1scc(-c2ccccc2)c1C(=O)O`, the “% Inhibition @ 10 uM” value worked out at 2.94%.
For `Cc1sc(C2C(C#N)=C(N)OC3=C2C(=O)CCC3)cc1COc1ccccc1Br` (stereo not drawn), the “% Inhibition @ 10 uM” value was determined as 1.35%.
For the molecule `Cc1cc(O)n2nc(NC(=O)c3ccco3)nc2n1`, the “% Inhibition @ 10 uM” value is listed as 0.401%.
The same measure for `Cc1nc(NCCO)c2c3c(sc2n1)CCCC3`: -2.59%; for `COc1ccc(S(=O)(=O)Nc2ccccc2C(=O)NCC(C)C)cc1Br`: -3.6%.
The same measure for `Cc1cccc(Nc2ccncc2S(=O)(=O)NC(=O)NC2CCCCC2)c1`: -2.29%.
For `Cc1ccc(C2=NS(=O)(=O)N(C)C(C(=O)N3CCOCC3)=C2)cc1` the value was 3.92%; for `CC(=O)N1N=C(c2ccc(Cl)c(Cl)c2)CC1c1ccccc1` (stereo not drawn), 3.06%.
Turning to `CC1=CCC2C(=O)N(c3ccc(F)c(Cl)c3)C(=O)C2C1` (stereo not drawn), the “% Inhibition @ 10 uM” value is recorded as -5.06%.
For `COc1cc(C2C(C#N)=C(N)OC3=C2C(=O)CCC3)ccc1OCc1ccc(C)cc1` (stereo not drawn) the value was -2.68%.
As for `Cc1ccc(NS(=O)(=O)NC(=O)Nc2nc(C)cc(C)n2)nc1`, the “% Inhibition @ 10 uM” value came to 1.29%.
The same measure for `COc1cccc(Cn2ccn(Cc3ccccc3OC)c(=O)c2=O)c1`: 0.0845%; for `COc1c(Cl)cc(Cl)cc1C(=O)Nc1ccc(C(=O)O)cc1`: -2.09%; for `CC(C)(C)c1nnc(NC(=O)c2sc3ccccc3c2Cl)s1`: 0.565%.
For `OC(c1ccc(F)cc1)(c1ccc(F)cc1)[C@@H]1CCCN1` the value was 1.43%.
As to `CC1(C)Cc2c(sc3ncn4nc(-c5ccncc5)nc4c23)CO1`, the “% Inhibition @ 10 uM” value is recorded as -1.69%.
For `CC(C)C[C@@H](C(=O)NC1(C#N)CC1)c1cccc(-c2cccc(-c3csc(N4CCN(C)CC4)n3)c2)c1` the value was 3.19%.
For `CCOC(=O)c1c(C)c(-c2ccccc2)n(CC(=O)N2C(C)CCCC2C)c1C` (stereo not drawn) the value was 1.72%; for `CCOC(=O)c1cnc2nc(C(F)(F)F)nn2c1N`, 3.66%; for `O=C1N=C(N2CCCC2)S/C1=C\c1ccc(OCc2ccccc2F)cc1`, -6.53%.
Consider `COc1ccc(C(=O)N2CCN(Cc3cccc(Cl)c3)CC2)cc1`, for which the “% Inhibition @ 10 uM” value is reported as -8.07%.
As for `C=CCNC(=O)c1c(NC(=O)c2ccccc2)sc2c1CCCC2`, the “% Inhibition @ 10 uM” value came to 0.431%.
For the molecule `O=C(O)CCC(=O)Nc1ccccc1Br`, the “% Inhibition @ 10 uM” value was -0.999%.
For `O=C1c2ccccc2C(=O)N1CC1OCc2ccccc2CO1` the value was -0.467%; for `COc1cc(/C=C2/NC(=O)N(c3cccc(Cl)c3)C2=O)ccc1O`, -8.46%; for `N#CCCS(=O)(=O)c1ccc(N)cc1`, -1.77%.
Turning to `O=C(NC1CCCCC1)C1C2C=CC3(CN(Cc4cccs4)C(=O)C13)O2` (stereo not drawn), the “% Inhibition @ 10 uM” value is -4.65%.
The same measure for `CSCCCN1CCN(CCOCCO)CC1`: -1.21%.
For `COc1cccc(OC)c1C(=O)NC1CCCCC1`, the “% Inhibition @ 10 uM” value is 2.41%.
In the case of `CN(C)c1ccc(-c2nc3ccccc3o2)cc1`, the “% Inhibition @ 10 uM” value is reported as -0.507%.
In the case of `COc1cc(/C=C2/C(=N)N3OC(C)=CC3=NC2=O)cc(Cl)c1OCc1ccccc1F`, the “% Inhibition @ 10 uM” value is 3.63%.
For `CN1CCN(C(=O)/C(=C/c2ccc(N(C)C)cc2)NC(=O)c2ccccc2)CC1` the value was -3.19%.

Source of the values: PMC6919601, “Identification of Plasmodium dipeptidyl aminopeptidase allosteric inhibitors by high throughput screening” (PLoS ONE, 2019).
